# Out of some 360,000 compounds screened, about 7,500 (2.1%) were called active. The shares of active, inactive and inconclusive entries below differ from those in the screen. Calls follow the shape of the dose curve; as a rule, active = well fitted cell-killing curve with a large enough effect; inconclusive = small, poorly fitted or top-dose-only effect, or effect the other way, or another doubt; inactive = no such curve, though single readings can be large or run the other way. Potencies of inconclusive entries are left out as doubtful fits.
# Assay: qHTS for induction of synthetic lethality in tumor cells producing 2HG: qHTS for the HT-1080-IDH1KD cell line;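 as to activity, negative = toxicity: 0% = DMSO wells and -100% = cell-free medium wells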
# Settings: HT-1080 IDH1 knockdown viability, ATP luminescence, 48 h; activity, negative = toxicity: at 46.1 µM (top of the series) unless noted
# Summary of the method: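 Using the IDH1-knockdown HT-1080 line run in the same batch and compound series as the NT line, viability after 48 h at 37 °C was determined by CellTiter-Glo luminescence and expressed as % activity.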
# Potency is read from the fitted curve at half-maximal effect; tags tell the direction and shape of the fitted curve.
SMILES,Potency,"activity, negative = toxicity"
COC(=O)c1ccc(C2c3[nH]c4ccccc4c3C[C@H]3C(=O)N(C)CC(=O)N23)cc1 (some centres undefined),"inconclusive [cytotoxic, partial curve]",–
O=C(NC1CCCCC1)C(c1ccncc1)N(Cc1ccccc1)C(=O)c1ccc(-c2ccccc2)[nH]1 (centres undefined),"inconclusive [cytotoxic, single point]",–
Fc1ccccc1/C=N/NC(=S)Nc1ccc(Cl)cc1Cl,active: 3.26 µM,–
CC1=C(C(=O)N2CCCCCC2)CC(CC(=O)NCCCCc2ccccc2)C(=O)N1CCC1=CCCCC1 (centres undefined),"inconclusive [cytotoxic, single point]",–
CC(C)C1C(=O)N(Cc2cn(CC3CCCCC3)nn2)CCS(=O)(=O)N1Cc1ccc(-c2ccc(F)cc2)cc1 (centres undefined),"inconclusive [cytotoxic, single point]",–
COc1ccc2nc(N(Cc3ccccc3)C(=O)CCNC(C)=O)sc2c1,"inconclusive [cytotoxic, single point]",–
COc1ccc(NC(=O)COC(=O)C2CC2)c(OC)c1,inactive,–
CN1CCN(c2ccc(CNC(=O)C3Cc4c(-c5cccc(F)c5)ccnc4O3)cc2)CC1 (centres undefined),"inconclusive [cytotoxic, single point]",–
Cc1c(C(=O)N2CCC(C)CC2)sc2ncnc(N(C)c3ccccc3)c12,"inconclusive [cytotoxic, single point]",–
CCCOc1ccc(CCCN=C(N)N)cc1Cl,active: 20.6 µM,–
COC(=O)c1cc(-c2cccc(OC)c2)c2c(=O)[nH]c(=O)n(C)c2n1,inactive,–
CC(C)(C)OC(=O)N1CCN(C(=O)c2[nH]cnc2C(=O)N[C@@H](Cc2ccccc2)C(=O)OCc2ccccc2)CC1,inactive,–
COc1ccc(CNC(=S)N/N=C/c2ccc(OC)c(OC)c2)cc1,–,inconclusive: -33.8% [cytotoxic]
COc1ccc(CCN2C(=O)CSC2=Nc2ccc(C(C)C)cc2)cc1OC,active: 5.8 µM,–
Nc1ccc(S(=O)(=O)Nc2nc(-c3ccccc3)cc(-c3ccccc3O)n2)cc1,–,inconclusive: -35% [cytotoxic]
COC(=O)[C@]12CCCCC=C1N(Cc1ccccc1)C(=O)[C@H](CC(=O)NCCCCc1ccccc1)C2,"inconclusive [cytotoxic, single point]",–
COc1ccc(/C=N\NC(=O)c2ccccc2Cl)cc1COc1c(F)c(F)c(F)c(F)c1F,"inconclusive [cytotoxic, single point]",–
CO[C@H]1CN(C)C(=O)c2ccc(NS(=O)(=O)c3ccccc3F)cc2OC[C@H](C)NC[C@@H]1C,inactive,–
C=CCn1c(C(CCCC)CC(C)O)n[nH]c1=S (centres undefined),inactive,–
CC(=O)Nc1cccc(-c2ccnc3c2CC(C)(C(=O)NCc2ccco2)O3)c1 (centres undefined),"inconclusive [cytotoxic, partial curve, poor fit]",–
Cc1cccc(-c2nnc(-c3cccc(NC(=O)Cc4cccs4)c3)o2)c1,"inconclusive [cytotoxic, single point]",–
COc1cc(OCC(=O)NC(C)C)cc2c1C(=O)O[C@@H](C)CCCC(=O)CCCCC2,–,inconclusive: 0%
CCn1cc(CN2CCc3c([nH]c4ccccc34)C2c2cccc(OC)c2OC)c(C)n1 (centres undefined),"inconclusive [cytotoxic, single point]",–

SMILES,Potency,"activity, negative = toxicity"
COc1ccc(N/C=C(\[N+](=O)[O-])S(=O)(=O)c2ccccc2)cc1,"inconclusive [cytotoxic, partial curve, poor fit]",–
Cc1cccc(NC(=O)CNC(=O)c2cccc(-n3cccc3)c2)c1C,inactive,–
CCC(C)C(NC(=O)c1ccccc1NC(=O)c1ccc(OC)cc1)C(=O)NCc1ccco1 (centres undefined),"inconclusive [cytotoxic, single point]",–
Cn1c(CC(=O)Nc2ccccc2F)nnc1SCC(=O)Nc1nccs1,inactive,–
Cc1ccc(S(=O)(=O)N(C)c2ccc(C(=O)N(CC(C)C)C3CCS(=O)(=O)C3)cc2)cc1 (centres undefined),inactive,–
CC(C)Oc1ccc(C(=O)/C=C2/C(=O)Nc3ccccc32)cc1,"inconclusive [cytotoxic, single point]",–
COc1ccccc1CN1CCC(CNS(=O)(=O)c2cc(-c3cc(C)no3)ccc2OC)CC1,"inconclusive [cytotoxic, single point]",–
CN(C)C(=O)CCSc1nnc(-c2ccncc2)o1,inactive,–
Cc1ccc(C(=O)Nc2ccc(C(=O)O)cc2)cc1S(=O)(=O)NCc1ccccc1,inactive,–
CC1(C)Cc2c(C#N)c(N3CCN(C(=O)c4ccccc4)CC3)nc(Cc3ccccc3)c2CO1,"inconclusive [cytotoxic, single point]",–
CCn1c(SCC(=O)Nc2oc(-c3ccccc3)c(-c3ccccc3)c2C#N)nnc1-c1cc(OC)cc(OC)c1,"inconclusive [cytotoxic, single point]",–
CN(C(=O)COC(=O)c1ccc(Cl)c(S(=O)(=O)NCc2ccccc2)c1)C1CCS(=O)(=O)C1 (centres undefined),inactive,–
NC1=NC(c2cn(-c3ccccc3)nc2-c2cccs2)n2c(nc3ccccc32)N1 (centres undefined),"inconclusive [cytotoxic, single point]",–
O=C(C1=C[C@@H](c2ccc(C(F)(F)F)cc2)C[C@@H](OCc2ccc(CO)cc2)O1)N1CCN(Cc2ccc3c(c2)OCO3)CC1,"inconclusive [cytotoxic, single point]",–
O=C(Nc1ccc(Cl)cn1)c1ccccc1[N+](=O)[O-],active: 18.4 µM,–
Cn1c(C(=O)NCCN2CCCCCC2)cc2c(=O)n(C)c3ccccc3c21,inactive,–
Cc1ccc(NC(=S)N2CC(C)OC(C)C2)cc1C (centres undefined),inactive,–
CCOc1ccc(/C=N/NC(=O)c2c(C)n(C)c3ccc(OC)cc23)cc1,"inconclusive [cytotoxic, single point]",–
CC1(C(=O)Nc2ccc(Cl)c(Cl)c2)CCN1C(=O)Cc1ccc(-c2ccccc2)cc1 (centres undefined),–,inconclusive: -24.9% [cytotoxic]
COc1ccc(S(=O)(=O)NCc2ccccn2)cc1NC(=O)c1ccc(C)cc1,active: 13 µM,–
CC[C@]1(c2ccccc2C)ON(c2ccccc2C(F)(F)F)C1=O,inactive,–
Cc1nn(CCc2nn[nH]n2)c2nc(-c3ccc(Br)cc3)cc(C(F)(F)F)c12,"inconclusive [cytotoxic, single point]",–
O=C(Nc1ccc(Oc2c(F)c(F)c(F)c(F)c2F)cc1)OC1CCN2Cc3ccccc3N=C12 (centres undefined),"inconclusive [cytotoxic, full curve]",–

SMILES,Potency,"activity, negative = toxicity"
CCCC(=O)Nc1ccc2nn(-c3ccc(OC)cc3)nc2c1,"inconclusive [cytotoxic, single point]",–
NC(=Nc1ccccc1)NC(=O)c1nc(Cl)c(N)nc1N,"inconclusive [cytotoxic, single point]",–
O=C1NC[C@H](CCCCN2C[C@H](Cc3ccccc3)N(CCc3ccc(O)cc3)C(=O)C2=O)N(CCc2ccc(O)cc2)C1=O,"inconclusive [rising, partial curve]",–
O=C(Cc1c(F)cccc1Cl)NNC(=O)c1cccs1,inactive,–
COc1ccc(OC)c(NC(=O)CSc2nc3scc(C)c3c(=O)[nH]2)c1,"inconclusive [cytotoxic, single point]",–
CN1CCN(C(=O)/C=C/c2cn(-c3ccccc3)nc2-c2ccc3c(c2)OCCO3)CC1,active: 23.1 µM,–
Cn1ccc2c(N3c4ccccc4CCc4ccccc43)cc3c(c21)C1CCC3O1 (centres undefined),active: 18.4 µM,–
CCOc1ccc(NC(=O)c2ccc(NS(=O)(=O)c3cccs3)cc2)cc1,inactive,–
Cc1ccc([N+](=O)[O-])cc1CN1CCN(c2ncc(Cc3ccccc3)cn2)CC1,"inconclusive [cytotoxic, single point]",–
CCn1ncc(Br)c1C(=O)Nc1ccn(C23CC4CC(CC(C4)C2)C3)n1,inactive,–
Cc1ccc(Oc2nnc(-c3cccs3)c3ccccc23)cc1C,"inconclusive [cytotoxic, single point]",–
COc1ccc(C)cc1NC(=O)CCN1CCN(c2ccccc2)CC1,inactive,–
O=C(C#Cc1ccccc1)c1cccc([N+](=O)[O-])c1,"inconclusive [cytotoxic, single point]",–
Cc1ccc(C(=O)NC(C(=O)OCc2cn3cc(Cl)ccc3n2)C(C)C)cc1 (centres undefined),inactive,–
O=C(N1CCN(c2ccccc2F)CC1)C12CC3CC(CC(C3)C1)C2,inactive,–
Cc1ccc(C(=O)O/N=C(\N)c2ccccn2)cc1,"inconclusive [cytotoxic, single point]",–
COc1ccc(C(=O)Nn2c(SCC(=O)N3CCC(C)CC3)nc3ccccc3c2=O)cc1,"inconclusive [cytotoxic, single point]",–
CC(C)c1ccc(S(=O)(=O)/N=C2\C=C(NS(=O)(=O)c3ccccc3)C(=O)c3ccccc32)cc1,"inconclusive [cytotoxic, partial curve]",–
O=C(COC(=O)c1ccc(Cl)nc1)Nc1cc(S(=O)(=O)N2CCCCC2)ccc1Cl,inactive,–
OC(CNc1nc(C(F)(F)F)nc2ccccc12)c1ccccc1 (centres undefined),"inconclusive [cytotoxic, partial curve]",–
CC(C)(C)c1ccc(OCCOc2ccc(C(C)(C)C)cc2NC=O)c(NC=O)c1,active: 14.6 µM,–
COc1ccc(N=C2S/C(=C\c3ccc(Cl)c([N+](=O)[O-])c3)C(=O)N2CCN(C)C)cc1,active: 20.6 µM,–
Cc1nc(-c2ccccc2)sc1C1(C)CC(c2c(Cl)cccc2Cl)=NO1 (centres undefined),"inconclusive [cytotoxic, single point]",–

# Source: PubChem BioAssay AID686971 (National Center for Advancing Translational Sciences (NCATS), 2013)
